In the supplement of paper PMC12217912:
This is one part of the list. Sequences were assembled here from the parent chain. Values near 0.05 are background.

B1: TEV protease; numbered along this chain (parent)
chain: MGESLFKGPRDYNPISSSICHLTNESDGHTTSLYGIGFGPFIITNKHLFRRNNGTLVVQSLHGVFKVKDTTTLQQHLVDGRDMIIIRMPKDFPPFPQKLKFREPQREERICLVTTNFQTKSMSSMVSDTSCTFPSGDGIFWKHWIQTKDGQCGSPLVSTRDGFIVGIHSASNFTNTNNYFTSVPKNFMELLTNQEAQQWVSGWRLNADSVLWGGHKVFMVKPEEPFQPVKEATQL

Variants of: B1
Assay: raw area under fraction-flipped curve 0-4 h after induction (AUC4h, not background-subtracted), DNA-recorder readout of cleavage of the substrate (dimensionless); higher = more cleavage of the substrate by the protease variant
Details: temperature: 34 °C; time window: 0-4 h after rhamnose induction
Procedure: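 In vivo DNA recorder in E. coli TOP10(DE3) ΔrhaA at 34 °C. Each TEVp single-site mutant (parent TEVp 0) is paired with a single-site variant of the 7-mer TEVs (canonical ENLYFQ|S). The substrate sits between flexible linkers in a Bxb1-sfGFP-TEVs-SsrA fusion, so cleavage stabilises Bxb1 and speeds flipping of a recombination array, read by NGS. The value is the raw area under the fraction-flipped curve over 0-4 h after rhamnose induction (AUC4h), with ≥20 reads per time point. It is not background-subtracted; inactive controls average about 0.047.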
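Further: Bxb1 expression induced with 0.2% (w/v) L-rhamnose at OD600 near 0.5, cultures sampled hourly, flipped fraction per protease–substrate barcode pair counted by paired-end Illumina sequencing.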

Row | Variant | area with substrate CNLYFQS | area with substrate DNLYFQS | area with substrate FNLYFQS | area with substrate GNLYFQS | area with substrate HNLYFQS | area with substrate INLYFQS | area with substrate KNLYFQS | area with substrate LNLYFQS | area with substrate NNLYFQS | area with substrate PNLYFQS | area with substrate SNLYFQS | area with substrate TNLYFQS | area with substrate WNLYFQS | area with substrate YNLYFQS | area with substrate MNLYFQS | area with substrate VNLYFQS | area with substrate QNLYFQS | area with substrate RNLYFQS
1 | L112R | 0.0709 | 0.0878 | 0.0692 | 0.0703 | 0.057 | 0.0618 | 0.0668 | 0.0544 | 0.0648 | 0.0611 | 0.0682 | 0.0581 | 0.0576 | 0.0471 |  |  |  | 
2 | M125E | 0.0631 | 0.0895 |  |  | 0.0592 |  |  | 0.0722 | 0.0442 | 0.0722 | 0.0642 | 0.0625 | 0.0821 | 0.0533 | 0.06 | 0.0597 |  | 
3 | R81K | 0.063 | 0.0687 | 0.0584 |  | 0.0536 |  |  | 0.0671 |  | 0.0611 | 0.0664 | 0.0675 |  | 0.0632 |  |  |  | 
4 | R81M | 0.0716 | 0.087 |  | 0.0635 | 0.0561 |  | 0.0601 | 0.0661 | 0.063 | 0.0787 |  | 0.0583 | 0.0544 | 0.0601 | 0.066 |  |  | 
5 | R81F | 0.0609 | 0.0619 | 0.0714 | 0.0641 | 0.0591 | 0.0541 |  | 0.0622 |  | 0.0567 |  |  | 0.0578 | 0.0553 | 0.0545 | 0.0593 | 0.0408 | 
6 | C111W | 0.0759 | 0.0859 |  |  | 0.0729 | 0.0589 |  |  |  | 0.0772 | 0.0724 |  | 0.0722 | 0.0552 |  |  |  | 
7 | S121G | 0.0609 | 0.0861 |  | 0.0303 | 0.0628 |  | 0.0642 |  |  | 0.0894 |  | 0.0728 | 0.0651 | 0.075 | 0.0809 | 0.0651 | 0.0541 | 
8 | S121P | 0.0538 | 0.116 | 0.0371 | 0.0716 | 0.0689 |  | 0.0614 |  |  |  |  | 0.0759 | 0.0586 |  | 0.0916 | 0.0358 | 0.0835 | 
9 | S124A | 0.0584 | 0.081 |  |  | 0.0777 |  | 0.0381 |  |  |  |  | 0.06 | 0.0527 | 0.0627 | 0.0643 | 0.0715 |  | 0.065
10 | S124T | 0.061 | 0.0814 |  | 0.0679 | 0.0625 |  | 0.0673 | 0.0658 |  | 0.0491 | 0.0727 | 0.0637 | 0.0689 | 0.0643 | 0.0261 |  | 0.0822 | 
11 | S124F | 0.0766 | 0.0936 | 0.0547 | 0.0705 | 0.0559 | 0.0491 |  |  | 0.0719 | 0.0683 | 0.0664 | 0.0873 | 0.0674 |  | 0.0733 |  |  | 
12 | S124I | 0.0686 | 0.0908 |  | 0.0304 | 0.0593 |  | 0.0835 | 0.058 |  | 0.0668 | 0.0563 |  |  | 0.0672 | 0.0441 | 0.0383 |  | 
13 | P93A | 0.0818 | 0.0542 | 0.056 |  |  | 0.0641 | 0.0631 |  |  | 0.0632 | 0.0637 | 0.0691 |  | 0.0658 |  |  |  | 0.0389
14 | K98T | 0.0788 | 0.076 | 0.0716 | 0.0722 | 0.0592 | 0.0721 | 0.0635 | 0.0656 | 0.0242 | 0.0738 | 0.0714 |  | 0.0533 | 0.0763 | 0.0713 | 0.071 |  | 0.0648
15 | K98G | 0.0687 | 0.0745 | 0.0867 | 0.0885 | 0.0572 | 0.0529 |  |  | 0.104 | 0.0706 |  | 0.0716 | 0.0683 | 0.0751 | 0.075 |  |  | 
